Data: patent US10392630B2, “Plants having increased tolerance to herbicides” (BASF AGRO B.V., priority 2013, dated 2019)
Where “and” joins values, the source holds several entries; their conditions need not be identical. Equal entries are not always repeated.

Assays:
[1] = system: transgenic Arabidopsis thaliana plants; assay: Growth inhibition of transgenic Arabidopsis in 48-well plates, tolerance factor (Table 5, FIG. 2); conditions: growth inhibition seven to ten days after seeding
[2] = system: transgenic T0 corn events; assay: Herbicide injury of transgenic T0 corn events, greenhouse spray (Table 6a); parameters: key: 0 is no injury relative to an unsprayed wild type check; 9 is completely dead; conditions: 7 days after treatment
Procedure: Immature embryos were transformed according to the procedure outlined in Peng et al. (WO2006/136596). Plants were tested for the presence of the T-DNA by Taqman analysis with the target being the nos terminator which is present in all constructs. Healthy looking plants were sent to the greenhouse for hardening and subsequent spray testing. The plants were individually transplanted into MetroMix 360 soil in 4′ pots. Once in the greenhouse (day/night cycle of 27° C./21° C. with 14 hour day length supported by 600 W high pressure sodium lights), they were allowed to grow for 14 days. […] Herbicide injury evaluations were taken at 7, 14 and 21 days after treatment. Herbicide injury evaluations were taken 2, 7, 14 and 21 days post-spray to look for injury to new growth points and overall plant health. The top survivors were transplanted into gallon pots filled with MetroMix 360 for seed production. It will be acknowledged by the person skilled in the art that by replacing the natural transit peptide of an Alopecurus PPO2 comprising the sequence of SEQ ID NO: 2, against a heterologous transit peptide from Zea mays (SEQ ID NO: 8) or Sorghum bicolor (SEQ ID NO: 9), the native N-terminal end of SEQ ID NO: 2 is shortened by 7 amino acids. Therefore, preferred mutational sites at or corresponding to, for example, positions R137 or F438 on SEQ ID NO: 2, as described above in the description in greater detail, are identical to positions R130 or F431 in said fusion proteins. See e.g. construct named tp-ZeamaPPO2::AlomyPPO2_R130A_F431V in Table 6.

[3] = system: transgenic soybean cv Jake cuttings; assay: Herbicide injury of transgenic soybean cuttings from T0 plants (Table 7, FIG. 4); conditions: V2 spray, 1 week after treatment
Procedure: Soybean cv Jake was transformed as previously described by Siminszky et al., Phytochem Rev. 5:445-458 (2006). After regeneration, transformants were transplanted to soil in small pots, placed in growth chambers (16 hr day/8 hr night; 25° C. day/23° C. night; 65% relative humidity; 130-150 microE m-2 s-1) and subsequently tested for the presence of the T-DNA via Taqman analysis. After a few weeks, healthy, transgenic positive, single copy events were transplanted to larger pots and allowed to grow in the growth chamber. An optimal shoot for cutting was about 3-4 inches tall, with at least two nodes present. Each cutting was taken from the original transformant (mother plant) and dipped into rooting hormone powder (indole-3-butyric acid, IBA). The cutting was then placed in oasis wedges inside a bio-dome. The mother plant was taken to maturity in the greenhouse and harvested for seed. Wild type cuttings were also taken simultaneously to serve as negative controls. The cuttings were kept in the bio-dome for 5-7 days and then transplanted to 3 inch pots and then acclimated in the growth chamber for two more days. […] Herbicide injury evaluations were taken at 2, 7, 14 and 21 days after treatment.
The following gives a definition of the injury scores measured above: […]

[4] = target: Alopecurus mutant PPO (ALOMY), SEQ ID NO 2 with amino acid substitution; assay: PPO enzyme assay, dose-response (fluorescence), mutated Alopecurus PPO2; conditions: Table 3b
Procedure: Proto was purchased from Sigma-Aldrich (Milwaukee, Wis.). Protogen was prepared according to Jacobs and Jacobs (N. J. Jacobs, J. M. Jacobs, Assay for enzymatic protoporphyrinogen oxidation, a late step in heme synthesis, Enzyme 28 (1982) 206-219). Assays were conducted in 100 mM sodium phosphate pH 7.4 with 0.1 mM EDTA, 0.1% Tween 20, 5 μM FAD, and 500 mM imidazole. […] Dose response was measured between the inhibitor concentration range of 1.00E-05 M to 1.00E-12 M. The excitation and emission bandwidths were set at 1.5 and 30 nm, respectively. All assays were made in duplicates or triplicates and measured using a POLARstar Optima/Galaxy (BMG) with excitation at 405 nm and emission monitored at 630 nm. […] Values were measured for Alopecurus wildtype and mutant PPO (ALOMY) in comparison with Amaranthus wildtype and mutant PPO (AMARE): Results are shown in the following Tables 3: […]

[5] = transgenic Arabidopsis Am_PPO2_F438L
[6] = transgenic Arabidopsis Am_PPO2_F438M
[7] = transgenic Arabidopsis Am_PPO2_F438V
[8] = transgenic Arabidopsis Am_PPO2_R137L
[9] = transgenic Arabidopsis Am_PPO2_R137M
[10] = transgenic Arabidopsis Am_PPO2_R137V

Compound: C#CCN1C(=O)C(F)(F)Oc2cc(F)c(-n3c(=O)n(C)c(=S)n(C)c3=O)cc21 [BAS 850H]
- TF (Tolerance Factor), relative tolerance rate (non-transgenic = 1.0) [1, 5]: >50
- TF (Tolerance Factor), relative tolerance rate (non-transgenic = 1.0) [1, 6]: >50
- TF (Tolerance Factor), relative tolerance rate (non-transgenic = 1.0) [1, 7]: >50
- TF (Tolerance Factor), relative tolerance rate (non-transgenic = 1.0) [1, 8]: >50
- TF (Tolerance Factor), relative tolerance rate (non-transgenic = 1.0) [1, 9]: >50
- TF (Tolerance Factor), relative tolerance rate (non-transgenic = 1.0) [1, 10]: >50
- Herbicide injury, 0 to 9 rating scale ([2]; T0 corn events AlomyPPO2_F438L, 100 g ai/ha + 1% (v/v) MSO at V2 stage): 4
- Herbicide injury, 0 to 9 rating scale ([2]; T0 corn events AlomyPPO2_F438V, 100 g ai/ha + 1% (v/v) MSO at V2 stage): 5 and 4
- Herbicide injury, 0 to 9 rating scale ([2]; T0 corn events AlomyPPO2_R137L, 75 g ai/ha + 1% (v/v) MSO at V2 stage): 5
- Herbicide injury, 0 to 9 rating scale ([2]; T0 corn events AlomyPPO2_R137M, 50 g ai/ha + 1% (v/v) MSO at V2 stage): 5 and 6 and 4
- Herbicide injury, 0 to 9 rating scale ([2]; T0 corn events AlomyPPO2_R137M, 100 g ai/ha + 1% (v/v) MSO at V2 stage): 5 and 6
- Herbicide injury ([3]; AlomyPPO2_F438V T0 cuttings, BAS 850H 50 g ai/ha): 1
- Herbicide injury ([3]; AlomyPPO2_F438V T0 cuttings, BAS 850H 75 g ai/ha): 5
- Herbicide injury ([3]; AlomyPPO2_R137V T0 cuttings, BAS 850H 25 g ai/ha): 7 and 8
- Herbicide injury ([3]; AlomyPPO2_R137V T0 cuttings, BAS 850H 50 g ai/ha): 9 and 8

Compound: OXADIARGYL
- IC50 ([4]; SEQ ID NO 2, mutation L415M, F438M): 10.2 nM
- IC50 ([4]; SEQ ID NO 2, mutation R137C): 0.711 nM
- IC50 ([4]; SEQ ID NO 2, mutation R137N): 3.48 nM
- IC50 ([4]; SEQ ID NO 2, mutation R137V, F438M): 17.8 nM
- IC50 ([4]; SEQ ID NO 2, mutation R137Y, F438M): 14.6 nM

Compound: CC(C)N(C)S(=O)(=O)NC(=O)c1cc(-n2c(=O)cc(C(F)(F)F)n(C)c2=O)c(F)cc1Cl [saflufenacil]
- TF (Tolerance Factor), relative tolerance rate (non-transgenic = 1.0) [1, 5]: 1700
- TF (Tolerance Factor), relative tolerance rate (non-transgenic = 1.0) [1, 6]: 2500
- TF (Tolerance Factor), relative tolerance rate (non-transgenic = 1.0) [1, 7]: 1560
- TF (Tolerance Factor), relative tolerance rate (non-transgenic = 1.0) [1, 8]: 3300
- TF (Tolerance Factor), relative tolerance rate (non-transgenic = 1.0) [1, 9]: 3300
- TF (Tolerance Factor), relative tolerance rate (non-transgenic = 1.0) [1, 10]: 1500
- Herbicide injury, 0 to 9 rating scale ([2]; T0 corn events AlomyPPO2_R137M, 75 g ai/ha + 1% (v/v) MSO at V2 stage): 0
- Herbicide injury ([3]; AlomyPPO2_F438M T0 cuttings, BAS 800H 25 g ai/ha): 9
- Herbicide injury ([3]; AlomyPPO2_F438V T0 cuttings, BAS 800H 50 g ai/ha): 1
- Herbicide injury ([3]; AlomyPPO2_F438V T0 cuttings, BAS 800H 100 g ai/ha): 6
- Herbicide injury ([3]; AlomyPPO2_F438V T0 cuttings, BAS 800H 200 g ai/ha): 0
- Herbicide injury ([3]; AlomyPPO2_R137L T0 cuttings, BAS 800H 100 g ai/ha): 4 and 3 and 5
